The text below walks through data of article PMC4336329 (PLoS ONE, 2015).

Among all 310,000 compounds or so, about 14,000 (4.5%) showed an effect of 50% or more. Effects have a minus sign here. The list shows a part of the results.
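Note: peak tail current of the secondary pulse compared with the same well before compound.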

Sequence of human ether-à-go-go-related gene (hERG) potassium channel (Q12809 whole entry, looked up): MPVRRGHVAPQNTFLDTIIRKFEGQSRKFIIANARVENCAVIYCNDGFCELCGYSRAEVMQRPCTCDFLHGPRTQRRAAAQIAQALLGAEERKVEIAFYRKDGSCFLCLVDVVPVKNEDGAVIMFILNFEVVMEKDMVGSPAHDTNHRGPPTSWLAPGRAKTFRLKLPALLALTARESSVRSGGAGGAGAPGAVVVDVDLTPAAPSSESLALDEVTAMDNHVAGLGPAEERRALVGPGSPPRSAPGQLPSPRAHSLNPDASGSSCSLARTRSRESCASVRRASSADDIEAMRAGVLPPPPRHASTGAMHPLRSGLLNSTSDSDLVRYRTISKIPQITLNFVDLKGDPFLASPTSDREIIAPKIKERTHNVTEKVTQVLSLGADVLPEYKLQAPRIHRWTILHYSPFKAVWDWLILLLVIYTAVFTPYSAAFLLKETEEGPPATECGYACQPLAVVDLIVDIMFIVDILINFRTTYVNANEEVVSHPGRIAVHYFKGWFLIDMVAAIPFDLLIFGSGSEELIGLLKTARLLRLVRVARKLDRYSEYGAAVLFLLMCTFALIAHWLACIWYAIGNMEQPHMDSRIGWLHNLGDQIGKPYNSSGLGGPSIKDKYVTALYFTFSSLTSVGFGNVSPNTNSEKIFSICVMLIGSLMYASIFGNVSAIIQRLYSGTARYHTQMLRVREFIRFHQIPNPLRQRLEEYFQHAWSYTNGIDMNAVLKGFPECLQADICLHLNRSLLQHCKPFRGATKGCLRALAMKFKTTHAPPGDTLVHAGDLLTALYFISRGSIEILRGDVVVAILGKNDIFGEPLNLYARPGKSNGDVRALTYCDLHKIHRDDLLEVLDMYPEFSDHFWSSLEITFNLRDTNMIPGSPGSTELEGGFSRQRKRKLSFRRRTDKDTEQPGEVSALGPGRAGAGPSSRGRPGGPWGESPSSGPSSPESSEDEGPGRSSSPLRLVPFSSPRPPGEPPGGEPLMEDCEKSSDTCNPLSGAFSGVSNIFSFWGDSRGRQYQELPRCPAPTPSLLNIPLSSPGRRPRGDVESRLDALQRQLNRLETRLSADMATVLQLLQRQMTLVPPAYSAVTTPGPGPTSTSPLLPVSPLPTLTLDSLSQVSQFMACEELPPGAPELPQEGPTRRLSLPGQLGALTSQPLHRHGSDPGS

The assay concerns the target human ether-à-go-go-related gene (hERG) potassium channel (human, UniProt Q12809). The experiment in a line: primary screen, population patch clamp on CHO cells stably expressing hERG.
In the case of `O=C(Nc1ccccc1C(=O)O)c1ccc2ccccc2n1`, the “hERG current change (%, negative = inhibition) at 10uM” value is on record as 18.9%.
Take `Cc1ccc(NC(=S)NC(C)(C)C)c([N+](=O)[O-])c1`: the “hERG current change (%, negative = inhibition) at 10uM” value was 13.6%.
As for `Cc1cccc(C(=O)Nc2ccc(C(=O)N/N=C/c3ccc4c(c3)OCO4)cc2)c1`, the “hERG current change (%, negative = inhibition) at 10uM” value was determined as 17.4%.
On to `O=c1[nH]n2c(=O)c3c([nH]c2c1N=Nc1cccc(Cl)c1)CCCC3`, for which the “hERG current change (%, negative = inhibition) at 10uM” value is 3.75%.
With `CCCCOc1ccccc1C(=O)NCCCCCC(=O)O`, the “hERG current change (%, negative = inhibition) at 10uM” value is given as 10.3%.
In the case of `Cc1ccc(NC(=O)C(C)N2C(=O)c3ccccc3C2=O)cc1` (stereo not drawn), the “hERG current change (%, negative = inhibition) at 10uM” value was -1.9%.
Regarding `Cc1ccc(C(=O)N/C(=C/c2cccs2)C(=O)NCCc2c[nH]c3ccccc23)cc1`, the “hERG current change (%, negative = inhibition) at 10uM” value is on record as -29.4%.
Turning to `CCOc1ccccc1-c1nc(CN2CCCN(C(=O)c3ccco3)CC2)c(C)o1`, the “hERG current change (%, negative = inhibition) at 10uM” value worked out at 9.83%.
As to `CCOc1ccc(/C=C/C(=O)NCc2ccccc2)cc1`, the “hERG current change (%, negative = inhibition) at 10uM” value was -1.45%.
The value for `N#C/C(=C\c1ccco1)Sc1nc2ccccc2s1` was 0.525%.
Regarding `CN(C)CCOC(=O)c1sc2ccccc2c1Cl.Cl`, the “hERG current change (%, negative = inhibition) at 10uM” value is recorded as -29.4%.
Consider `O=C(c1ccc2c(=O)n(CCc3ccccc3)c(=O)[nH]c2c1)N1CCN(c2ccc(F)cc2)CC1`, for which the “hERG current change (%, negative = inhibition) at 10uM” value is given as 17.9%.
The value for `O=C(OCCOc1ccc(Br)cc1)c1ccc(Cl)nc1` was 10.8%.
Then `CCOC(=O)C1CCCCN1C(=O)c1ccc2nc(Cc3ccc(OC)cc3)oc2c1` (stereo not drawn), with -22.8%; and `CCCCN(C(=O)C1CC(=O)N(c2ccc3c(c2)OCCO3)C1)c1c(N)n(CCCC)c(=O)[nH]c1=O` (stereo not drawn), with -0.054%.
With `CCCCNC(=O)c1onc(CSc2cc(C)ccc2C)c1C(=O)O`, the “hERG current change (%, negative = inhibition) at 10uM” value worked out at 1.55%.
In the case of `O=C(c1ccccc1)N1CCN(S(=O)(=O)c2cccs2)CC1`, the “hERG current change (%, negative = inhibition) at 10uM” value is -2.06%.
As for `Cn1c2ccccc2c(=O)c2c(=O)n(C3CCCCC3)c(-c3ccco3)nc21`, the “hERG current change (%, negative = inhibition) at 10uM” value was -53.9%.
In the case of `Cl.N=C(c1ccc([N+](=O)[O-])cc1)N1CCCCC1`, the “hERG current change (%, negative = inhibition) at 10uM” value was -10.9%.
The value for `CCCOc1ccc(CCC(=O)N/N=C/c2ccc([N+](=O)[O-])o2)cc1` was -19.5%; that for `O=C1CCCC/C1=C/NCc1ccc(F)cc1` was 6.07%; that for `Cc1cc(C)n2nc(C(=O)Nc3ccc4c(c3)OCO4)cc2n1` was -4.16%.
Turning to `Nc1nc(N)c2sc3nc(C(F)(F)F)cc(C(F)(F)F)c3c2n1`, the “hERG current change (%, negative = inhibition) at 10uM” value is reported as -20.2%.
In the case of `O=C(NC1(C(F)(F)F)NC(=O)N(Cc2cccnc2)C1=O)c1cccs1` (stereo not drawn), the “hERG current change (%, negative = inhibition) at 10uM” value is recorded as 0.457%.
For the molecule `CCc1nnc(NC(=O)C2(C)COC(c3ccccc3)OC2)s1` (stereo not drawn), the “hERG current change (%, negative = inhibition) at 10uM” value is given as 20%.
Then `Cc1ccc(C)c(N(C(=O)c2csnn2)C(C(=O)NC2CCCCC2)c2cccnc2)c1` (stereo not drawn), with 16.7%; and `O=C(COC(=O)C1CCC1)Nc1cccc(S(=O)(=O)N2CCOCC2)c1`, with 2.53%.
Consider `CCCN1CCC(NC(=S)Nc2ccc([N+](=O)[O-])cc2)CC1`, for which the “hERG current change (%, negative = inhibition) at 10uM” value is -52.6%.
Then `CCn1c(CN2CCOCC2)nnc1SCC(=O)Nc1ccccc1C`, with 21.3%.
Turning to `Cc1ccc(C2=NN(C(=O)CCCC(=O)O)C(c3ccc4c(c3)OCO4)C2)cc1` (stereo not drawn), the “hERG current change (%, negative = inhibition) at 10uM” value is reported as 24.2%.
For `CCOc1cc(NC(=S)NCC2CCCO2)c(OCC)cc1NC(=O)c1ccc(F)cc1` (stereo not drawn), the “hERG current change (%, negative = inhibition) at 10uM” value turned out to be 8.01%.
Regarding `CCOC(=O)c1c(NC(=O)C2COc3ccccc3O2)sc2c1CC(C)(C)NC2(C)C` (stereo not drawn), the “hERG current change (%, negative = inhibition) at 10uM” value was -12.1%.
On to `CCn1c(NCc2ccc(OC)cc2)nc2ccccc21`, for which the “hERG current change (%, negative = inhibition) at 10uM” value was -21.7%.
On to `CC(=O)N1c2ccc(S(=O)(=O)N3CCC(C(=O)N4CCN(c5ccccc5F)CC4)CC3)cc2CC1C` (stereo not drawn), for which the “hERG current change (%, negative = inhibition) at 10uM” value is listed as -10.1%.
Consider `Cc1[nH]c2c(Cl)cccc2c1CCN`, for which the “hERG current change (%, negative = inhibition) at 10uM” value was -0.59%.
Then `O=C(Nc1ccc(F)cc1)N1CCCCCC1`, with 13.3%.
For `c1ccc2nc(-c3ccc(-n4ccnc4)cc3)ccc2c1`, the “hERG current change (%, negative = inhibition) at 10uM” value is -8.56%.
Consider `CCn1nnnc1SCC(=O)Nc1ccc(OCc2ccccc2)cc1`, for which the “hERG current change (%, negative = inhibition) at 10uM” value is listed as -10.9%.
In the case of `COC(=O)C1=C(C)N=C2SCCC(=O)N2C1/C=C/c1ccccc1` (stereo not drawn), the “hERG current change (%, negative = inhibition) at 10uM” value is reported as -16.8%.
For the molecule `COCCNC(=O)Cc1cn(C)c2ccccc12`, the “hERG current change (%, negative = inhibition) at 10uM” value is listed as 4.15%.
Then `Nc1nonc1C(=O)NCCNCc1ccccc1`, with 4.52%; and `COc1ccc(CN2CCNC(=O)C2CC(=O)NC2CCCC2)c(OC)c1` (stereo not drawn), with 2.55%; and `Oc1ccc(/C=N/Nc2ccnc3cc(Cl)ccc23)cc1O`, with -0.77%.
In the case of `COC(=O)C1CCN(C(=O)Nc2ccc(OC)cc2)CC1`, the “hERG current change (%, negative = inhibition) at 10uM” value turned out to be 1.72%.
Take `O=C(CCc1ccccc1)NC1C2CC3CC(C2)CC1C3` (stereo not drawn): the “hERG current change (%, negative = inhibition) at 10uM” value is recorded as -9.03%.
For the molecule `c1cncc(C2CCCCN2)c1` (stereo not drawn), the “hERG current change (%, negative = inhibition) at 10uM” value is recorded as -6.38%.
In the case of `COc1ccc2nc(SCC(=O)N3CCN(c4ccc(F)cc4)CC3)c(C#N)cc2c1`, the “hERG current change (%, negative = inhibition) at 10uM” value was -38.5%.
On to `C=CCN1C(=O)c2ccc(C(=O)N3CCN(S(=O)(=O)c4ccccc4Br)CC3)cc2C1=O`, for which the “hERG current change (%, negative = inhibition) at 10uM” value is -41.2%.
For `COc1ccc(N2C(=O)CC(c3ccc(OC(C)C)cc3)C2=O)cc1` (stereo not drawn), the “hERG current change (%, negative = inhibition) at 10uM” value worked out at 1.78%.
In the case of `CCOC(=O)Cc1csc(SCc2nc3ccccc3c(=O)[nH]2)n1`, the “hERG current change (%, negative = inhibition) at 10uM” value is on record as -11.2%.
The value for `COC(=O)c1ccc(C2/C(=C(/O)c3ccc(Cl)cc3)C(=O)C(=O)N2C2CCS(=O)(=O)C2)cc1` (stereo not drawn) was 2.45%.
Regarding `O=C(O)/C=C/C(=O)NC1CCCCCCCCCCC1`, the “hERG current change (%, negative = inhibition) at 10uM” value is given as -3.8%.
Consider `Cc1ccc(-n2ncc3c2CC(C)(C)CC3NC(=O)CCCN2CCCCC2=O)cc1` (stereo not drawn), for which the “hERG current change (%, negative = inhibition) at 10uM” value is recorded as -8.82%.
On to `O=C1C=C(c2ccc(-c3ccccc3)c(F)c2)C[C@@H](c2ccc3c(c2)OCO3)C1`, for which the “hERG current change (%, negative = inhibition) at 10uM” value is 6.42%.
For `CCCCOc1ccc(C(=O)Nc2ccc(N3CCN(C)CC3)cc2)cc1`, the “hERG current change (%, negative = inhibition) at 10uM” value was -10.2%.
In the case of `COc1ccc(C)cc1NC(=O)CCN1CCN(c2ccccc2)CC1`, the “hERG current change (%, negative = inhibition) at 10uM” value was -10.3%.
For `Cc1ccnc(NC(=O)c2cccc3ccccc23)c1`, the “hERG current change (%, negative = inhibition) at 10uM” value is recorded as -12.5%.
